Hit rate of the full screen: of about 16,000 compounds, about 120 (0.75%) were called active. About 4% were inconclusive and are not listed. Calls come from the whole dose curve; as a rule, active = well fitted inhibition curve with a large enough effect; inconclusive = small, poorly fitted or top-dose-only effect; inactive = no such curve, though single readings can be large or run the other way. This is one part of the list.

The test has as its target Rap guanine nucleotide exchange factor 3 (Homo sapiens) (UniProt O95398). Briefly: Validation qHTS for antagonist of cAMP-regulated guanine nucleotide exchange factor 3 (EPAC1). Note: nearly all actives have a fitted effect of over 75% in size. The note with it: EPAC1 Rap1B-BODIPY-GDP exchange, fluorescence; series mostly up to 150 µM; activity change, negative = inhibition: at the top concentration. An excerpt: Assay Provider (PI): Xiaodong Cheng Ph.D.
Sequence of UniProt O95398 (O95398 whole entry, looked up): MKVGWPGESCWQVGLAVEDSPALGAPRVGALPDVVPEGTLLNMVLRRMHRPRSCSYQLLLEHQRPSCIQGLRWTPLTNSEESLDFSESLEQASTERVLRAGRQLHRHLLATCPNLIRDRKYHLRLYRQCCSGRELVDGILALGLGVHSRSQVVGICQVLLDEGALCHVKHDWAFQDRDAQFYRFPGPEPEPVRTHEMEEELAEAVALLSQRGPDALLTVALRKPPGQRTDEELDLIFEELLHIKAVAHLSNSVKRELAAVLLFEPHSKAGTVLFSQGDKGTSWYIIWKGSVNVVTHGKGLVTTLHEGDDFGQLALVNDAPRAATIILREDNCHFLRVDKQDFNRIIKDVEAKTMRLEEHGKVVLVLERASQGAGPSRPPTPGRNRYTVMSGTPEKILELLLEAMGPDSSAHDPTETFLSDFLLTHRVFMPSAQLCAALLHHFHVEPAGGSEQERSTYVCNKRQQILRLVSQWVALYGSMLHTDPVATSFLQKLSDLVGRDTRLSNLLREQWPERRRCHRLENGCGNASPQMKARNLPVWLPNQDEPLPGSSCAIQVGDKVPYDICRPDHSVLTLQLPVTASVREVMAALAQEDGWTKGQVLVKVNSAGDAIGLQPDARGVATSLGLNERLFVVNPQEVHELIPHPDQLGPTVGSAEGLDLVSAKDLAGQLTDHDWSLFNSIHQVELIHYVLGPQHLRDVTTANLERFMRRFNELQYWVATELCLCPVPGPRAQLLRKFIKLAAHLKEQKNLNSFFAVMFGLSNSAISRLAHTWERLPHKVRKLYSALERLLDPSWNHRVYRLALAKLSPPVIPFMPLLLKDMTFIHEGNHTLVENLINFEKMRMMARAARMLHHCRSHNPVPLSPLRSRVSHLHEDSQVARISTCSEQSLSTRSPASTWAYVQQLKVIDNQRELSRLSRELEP
The University of Texas Medical Branch, […], TX
In multi-cellular eukaryotic organisms, the effects of cAMP are transduced by two ubiquitously-expressed intracellular cAMP receptors, the classic protein kinase A/cAMP-dependent protein kinase (PKA/cAPK) and the more recently discovered exchange protein directly activated by cAMP/cAMP-regulated guanine nucleotide exchange factor (EPAC/cAMP-GEF). Both PKA and EPAC are ubiquitously expressed in all tissues, and an increase in intracellular cAMP levels will lead to the activation of both PKA and EPAC. Therefore, careful dissections of the individual role and relative contribution of EPAC and PKA within the overall cAMP signaling in various model systems are critical for further elucidating the mechanism of cAMP signaling. To date no EPAC-specific antagonists and agonist, as well as isoform-specific agonists have been reported, and developing EPAC-specific pharmacological probes to determine the physiological functions that EPAC play in the overall cAMP-mediated signaling remains a major challenge within the research field. Furthermore, identified regulators of EPAC may lead to new mechanism-based therapeutic strategies specifically targeting the EPAC / cAMP-signaling components as EPAC has been implicated to play important roles in major human pathological conditions such as diabetes, heart disease, and cancer.
This qHTS will be used to screen the Molecular Libraries Small Molecule Repository (MLSMR) as a concentration-titration series using the NCGC unique quantitative screening (qHTS) platform to find activators for EPAC1. In addition, this assay will also be used as a counterscreen for the EPAC2 qHTS. This fluorescent based assay is developed and validated for EPAC1 that measures exchange using EPAC effector Rap1 complex with BODIPY-GDP, a GDP analog with a tethered fluorophores. Activators are identified by monitoring the change in fluorescence signal as the exchanged free BODIPY-GDP has a reduced fluorescence compared to Rap1-bound BODIPY-GDP. Increase in signal (activation) is the desired outcome for the EPAC1 agonist while no activity in this assay is desired for the EPAC2 agonist counterscreen.
[1] de Rooij, J., Zwartkruis, F. J., Verheijen, M. H., Cool, R. H., Nijman, S. M., Wittinghofer, A., and Bos, J.L. (1998) Nature 396, 474-477.
Briefly, three uL of reagents (100 nM EPAC1, 250 nM RAP1B-BODIPY-GDP, 50 uM GDP) were dispensed into a 1536-well Greiner black solid-bottom medium binding assay plate. Controls and test compounds (23 nL) were transferred to the plate via a Kalypsys pin tool equipped with a 1536-pin array. The plates were centrifuged at 1,000 rpm for 15 seconds followed by 5 minute incubation at room temperature. The assay plates were read at 5 minute intervals for 30 minutes in the ViewLux plate reader using 480nm excitation and 540nm emission filters. The results were normalized to the […] positive control ATA and DMSO.
Regarding `CC(=O)OCC(=O)[C@@]1(O)CCC2C3CCC4=CC(=O)CC[C@]4(C)C3C(O)C[C@]21C` (stereo not given in full), the “activity change, negative = inhibition” value was inactive: -1.37%.
Consider `Cc1nc2ccccc2nc1CN1CCOc2ccc(CN3CCc4sccc4C3)cc2C1`, for which the “activity change, negative = inhibition” value was inactive: 9.48%.
The value for `CS(=O)(=O)Nc1cccc(-c2nc(NC3CC3)c3ccccc3n2)c1` was inactive: 4.65%.
For `CCCCCCCCC#CCC#CCC#CCCCC(=O)O`, the activity change, negative = inhibition was inactive: 19.7% [at 15.3 µM].
Take `O=c1cc(-c2cc(O)c(O)c(O)c2)oc2cc(O)cc(O)c12`: the “activity change, negative = inhibition” value was inactive: -20%.
The value for `Cc1c(C(=O)NCC2(c3ccccc3)CCOCC2)cnn1-c1nccc(-c2ccco2)n1` was inactive: 19.3%; that for `Cc1noc(C)c1C(=O)N1CCC2(CCN(Cc3nccs3)CC2)CC1` was inactive: 16.3%.
The same measure for `CN1CCN(CCCN2c3ccccc3Sc3ccc(S(=O)(=O)N(C)C)cc32)CC1`: inactive: 29.1% [at 75.8 µM]; for `CCCC[P+](CCCC)(CCCC)Cc1ccc(NC(=O)[C@@H](Cc2ccc3ccccc3c2)NC(=NC2CCCCC2)NC2CCCCC2)cc1`: inactive: -1.67%.
In the case of `COCc1ccc(CN2CCOc3ccc(C4=CCCCC4)cc3C2)o1`, the “activity change, negative = inhibition” value is inactive: 12.9%.
For the molecule `CNc1ncncc1-c1c(C)noc1C`, the “activity change, negative = inhibition” value was inactive: 2.93%.
Regarding `N[C@H](C(=O)O)C1[C@H](C(=O)O)[C@H]1C(=O)O` (stereo not given in full), the “activity change, negative = inhibition” value is inactive: -3.28%.
The value for `O=c1[nH]cc(F)c(=O)[nH]1` was “inactive”; that for `O=C(O)c1cc(=O)c2cccc(O)c2[nH]1` was “inactive”.
The same measure for `CCOc1cc(NC(C)=O)ccc1C(=O)OC`: inactive: 11.1%; for `COc1ccc(CNc2nc(-c3cccnc3)nc3ccccc23)c(OC)c1`: inactive: -10.7%; for `Cc1c(C(=O)NCC2(N3CCOCC3)CCCCCC2)cnn1-c1nccc(-c2ccccc2F)n1`: inactive: -14.3%.
The same measure for `C[C@]12C=CC(=O)C=C1CC[C@@H]1[C@@H]2[C@@H](O)C[C@@]2(C)[C@H]1CC[C@]2(O)C(=O)CO`: inactive: 21.6%; for `COc1cccc(CN2C(=O)NC(C)(C3CCN(Cc4ccc(C)o4)CC3)C2=O)c1OC` (stereo not given): inactive: 8.57%; for `CC(C)Cc1ccc([C@H](C)C(=O)O)cc1`: “inactive”.
With `COCC(=O)Nc1cc(C(=O)N2CCCC2c2nccs2)c2c(c1)nc(-c1ccncc1)n2C` (stereo not given), the “activity change, negative = inhibition” value was inactive: 8.33%.
For `COc1cccc(-c2cncnc2Nc2ccc(F)cc2)c1`, the “activity change, negative = inhibition” value was inactive: 11.6%.
The same measure for `CS(=O)(=O)NCc1ccccc1Br`: inactive: -9.38%; for `CS(=O)(=O)c1ccc([C@@H](O)[C@@H](CO)NC(=O)C(Cl)Cl)cc1`: inactive: 7.5% [at 75.8 µM].
On to `O=C1CC[C@H](C(=O)O)N1`, for which the “activity change, negative = inhibition” value was inactive: -9.06%.
The same measure for `COc1ccc(CCN(C)Cc2cc(-c3cncnc3)ccc2O)cc1OC`: inactive: 5.29%; for `COc1ccc(-n2c(=O)c(C)nc3cnc(OC)nc32)cc1`: inactive: 19%.
The same measure for `COC(=O)C[C@H]1c2cc(F)cc(F)c2S(=O)(=O)N1C1CCN(Cc2ccccc2)CC1`: inactive: 0.282%.
As to `O=C(c1ccco1)N1CCC2(CCCN(C(c3ccccc3)c3ccccc3)C2)CC1`, the “activity change, negative = inhibition” value is inactive: 11.6%.
For `O=c1c(-c2cc(F)cc(F)c2)nc2cnc(N3CCOCC3)nc2n1CCc1ccccc1`, the “activity change, negative = inhibition” value is inactive: 1.31%.
The same measure for `COCCn1c(=O)c(C)nc2cnc(Nc3cccc(OC)c3)nc21`: inactive: 11.5%; for `CC(=O)Oc1cc(C(F)(F)F)ccc1C(=O)O`: inactive: 9.56% [at 75.8 µM]; for `N=c1ccn2c(n1)O[C@H]1[C@H](O)[C@@H](CO)O[C@H]12`: “inactive”.
For `CCCCCCCCCCCCCCCCCC(=O)OC[C@@H](O)[C@H]1OC[C@H](O)[C@H]1O`, the “activity change, negative = inhibition” value is inactive: 3.48%.
On to `CC(=O)Oc1c(C)cccc1C(=O)O`, for which the “activity change, negative = inhibition” value is inactive: 11.5%.
The value for `CN(C)c1nc(-c2ccc3c(c2)OCO3)nc2ccccc12` was inactive: -7.17%; that for `CCCCCCCC/C=C\CCCCCCCC(=O)NCc1ccc(O)c(OC)c1` was inactive: -12% [at 75.8 µM]; that for `COc1ccc(C(=O)N2CCC[C@@]3(CCN(Cc4nccs4)C3)C2)cc1` was inactive: 19.8%.
As for `CCN(Cc1ccncc1)Cc1ccc2c(c1)CN(C(=O)c1ccccc1-n1cccn1)CCO2`, the “activity change, negative = inhibition” value is inactive: 5.38%.
The same measure for `O=C1NC(=O)/C(=C/c2ccc(-c3ccc(F)cc3O)o2)S1`: inactive: -7.07% [at 75.8 µM]; for `Nc1ncnc2c1ncn2C1OC(CO)C(O)C1O` (stereo not given): “inactive”; for `O=C(Nc1ccccc1)N1CCC2(CC1)CCN(C(=O)c1cccc(F)c1)CC2`: inactive: 11.7%.
`CC(C)c1ccc2c(c1)CCC1C(C)(C(N)=O)CCCC21C` (stereo not given): the “activity change, negative = inhibition” value was inactive: -20%.
The value for `CCCn1c(=O)c2[nH]c(-c3ccccc3)nc2n(CCC)c1=O` was “inactive”.
The same measure for `COc1ccccc1N(C)C`: inactive: 8.72%.
For the molecule `O=c1c(-c2cccc(F)c2)nc2cncnc2n1-c1ccccc1`, the “activity change, negative = inhibition” value was inactive: 13.2%.
In the case of `COc1ccccc1N1CCN(c2nc(CNC(=O)c3ccccc3F)nc3ccccc23)CC1`, the “activity change, negative = inhibition” value was inactive: 13.9%.
The value for `CCCCCCCCCCCCCCCCCC(=O)O` was inactive: -10.7%.
Consider `CCCCC(=O)OCC(=O)[C@]1(O)Cc2c(O)c3c(c(O)c2[C@@H](O[C@H]2C[C@H](NC(=O)C(F)(F)F)[C@H](O)[C@H](C)O2)C1)C(=O)c1c(OC)cccc1C3=O`, for which the “activity change, negative = inhibition” value was inactive: -16.9%.
The value for `N#Cc1ccc(CN2CC[C@@]3(CCCN(S(=O)(=O)c4ccccc4)C3)C2)cc1` was inactive: 2.27%.

Values taken from PubChem BioAssay AID1645882 (National Center for Advancing Translational Sciences (NCATS), 2021).
